Assay results taken from the supplement of paper PMC9446081.
Among all 39,000 compounds or so, about 220 (0.56%) showed activity. Some of the results follow.

System: Escherichia coli K-12 BW25113
Assay: relative growth (OD600 normalised to plate interquartile mean) (fraction); higher = less growth inhibition, active = 0.2 or less
Settings: 50 µM; LB; incubation time: overnight (16-24 h)
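Also: static incubation at 37 °C against the wild-type strain, values averaged over two biological replicates.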

SMILES	relative growth
C[C@H](CO)N1C[C@H](C)[C@H](CN(C)S(C)(=O)=O)Oc2c(cccc2N(C)C)C1=O	inactive: 0.989
COc1ccc(NC(=O)N(C)C[C@@H]2Oc3c(NC(=O)Nc4ccc(C(F)(F)F)cc4)cccc3C(=O)N([C@@H](C)CO)C[C@H]2C)cc1	inactive: 0.789
C[C@@H]1CN([C@@H](C)CO)C(=O)Cc2cc(NC(=O)Cc3ccccc3)ccc2O[C@@H]1CN(C)S(=O)(=O)c1cn(C)cn1	inactive: 1.03
C[C@@H]1CN([C@H](C)CO)C(=O)c2cc(NS(=O)(=O)c3ccccc3)ccc2O[C@@H]1CN(C)S(=O)(=O)c1cn(C)cn1	inactive: 0.968
C[C@H](CO)N1C[C@H](C)[C@@H](CN(C)CC2CC2)Oc2ccc(NC(=O)CCN3CCOCC3)cc2CC1=O	inactive: 1.02
COCCCNC(=O)[C@]1(Cc2ccccc2N=[N+]=[N-])N=C(c2ccc(OCCCO)cc2)O[C@@H]1c1ccccc1	inactive: 1.05
C[C@H](CO)N1C[C@H](C)[C@H](CN(C)C(=O)CCC(F)(F)F)OCCCC[C@H](C)Oc2ccc(NC(=O)NC3CCCCC3)cc2C1=O	inactive: 1.01
CC(C)NC(=O)N(C)C[C@H]1OCCCC[C@@H](C)Oc2ccc(NC(=O)Nc3cccc4ccccc34)cc2C(=O)N([C@H](C)CO)C[C@@H]1C	inactive: 0.989
CC(C)NC(=O)Nc1ccc2c(c1)CC(=O)N([C@@H](C)CO)C[C@@H](C)[C@H](CN(C)C(=O)Nc1ccc3c(c1)OCO3)O2	inactive: 0.985
Cc1noc(C)c1S(=O)(=O)Nc1ccc2c(c1)C(=O)N([C@@H](C)CO)C[C@@H](C)[C@@H](CN(C)CC1CCCCC1)OCCCC[C@H](C)O2	inactive: 0.964
C[C@@H]1CN([C@@H](C)CO)C(=O)c2cc(NS(=O)(=O)c3cccs3)ccc2O[C@H]1CN(C)S(=O)(=O)c1cccs1	inactive: 1.01
N[C@H]1CC[C@H](CCn2cc(-c3cccc(F)c3)nn2)O[C@@H]1CO	inactive: 0.991
O=C(C[C@@H]1CC[C@H]2[C@@H](COC[C@@H](O)CN2S(=O)(=O)c2ccccc2F)O1)NCc1ccccc1Cl	inactive: 1.03
Nc1nnnn1/N=C\c1ccc(O)cc1	inactive: 0.995
COc1ccc(NC(=O)N[C@H]2CC[C@@H](CCNC(=O)CN3CCOCC3)O[C@H]2CO)cc1	inactive: 0.99
Cc1noc(C)c1NC(=O)Nc1ccc2c(c1)C(=O)N([C@@H](C)CO)C[C@@H](C)[C@@H](CN(C)C(=O)C1CCCCC1)OCCCC[C@@H](C)O2	inactive: 0.98
CO[C@@H]1CN(C)C(=O)c2ccc(NC(=O)C3CC3)cc2OC[C@H](C)N(C(=O)Cc2ccccn2)C[C@H]1C	inactive: 0.982
CN1CCN(C(=O)C[C@@H]2C[C@@H]3c4cc(NS(=O)(=O)c5ccc(F)cc5)ccc4O[C@@H]3[C@H](CO)O2)CC1	inactive: 1.01
C[C@@H]1CN([C@H](C)CO)C(=O)CCCn2nncc2CO[C@@H]1CN(C)C(=O)Nc1cccc(Oc2ccccn2)c1	inactive: 0.992
C[C@@H]1CCCCO[C@H](CN(C)Cc2ccc3c(c2)OCO3)[C@H](C)CN([C@H](C)CO)C(=O)c2cc(NC(=O)Cc3ccccc3)ccc2O1	inactive: 1.01

SMILES	relative growth
C[C@@H]1CCCCO[C@H](CN(C)Cc2ccc3c(c2)OCO3)[C@H](C)CN([C@@H](C)CO)C(=O)c2cc(NC(=O)Nc3ccc(F)cc3)ccc2O1	inactive: 0.983
C[C@@H]1CCCCO[C@H](CN(C)C(=O)c2ccncc2)[C@@H](C)CN([C@H](C)CO)C(=O)c2cc(NS(=O)(=O)c3cn(C)cn3)ccc2O1	inactive: 0.971
CO[C@H]1CN(C)C(=O)c2cc(NC(=O)C3CCOCC3)ccc2OC[C@@H](C)N(Cc2cccnc2)C[C@H]1C	inactive: 1.02
O=C(C[C@H]1CC[C@H]2[C@@H](COC[C@@H](O)CN2S(=O)(=O)c2cccc(Cl)c2)O1)NC1Cc2ccccc2C1	inactive: 0.907
COc1ccc(CN(C)C[C@H]2OCCCC[C@@H](C)Oc3ccc(NS(=O)(=O)c4cccs4)cc3C(=O)N([C@@H](C)CO)C[C@@H]2C)cc1	inactive: 1
CCn1c(CN2CCN(C(=O)c3ccco3)CC2)nc2c1c(=O)n(C)c(=O)n2C	inactive: 1.01
COc1ccc(S(=O)(=O)N(C)C[C@H]2OCCCC[C@H](C)Oc3ccc(NS(=O)(=O)c4ccc(Cl)cc4)cc3C(=O)N([C@@H](C)CO)C[C@@H]2C)cc1	inactive: 0.981
C[C@@H]1CN([C@@H](C)CO)C(=O)c2cc(NC(=O)C3CCCCC3)ccc2O[C@@H]1CN(C)C(=O)Nc1cccc2ccccc12	inactive: 1.01
C[C@H]1CN([C@@H](C)CO)S(=O)(=O)c2ccc(-c3ccc(C(=O)N(C)C)cc3)cc2O[C@@H]1CN(C)C(=O)C1CC1	inactive: 1.02
C[C@@H]1CN([C@@H](C)CO)C(=O)c2cccc(NS(=O)(=O)c3cn(C)cn3)c2O[C@H]1CN(C)S(=O)(=O)c1cn(C)cn1	inactive: 0.974
C[C@H]1CN([C@@H](C)CO)C(=O)c2cc(NC(=O)Cc3ccccc3)ccc2O[C@@H]1CN(C)C(=O)Nc1cccc2ccccc12	inactive: 0.961
C[C@@H]1CN([C@H](C)CO)C(=O)CCCn2cc(nn2)CO[C@H]1CN(C)S(=O)(=O)c1ccc(Oc2ccccc2)nc1	inactive: 0.984
CC(=O)OCC1=C(C(=O)[O-])N2C(=O)C(NC(=O)Cc3cccs3)C2SC1.[Na+] (stereo not drawn)	active: 0.0435
C[C@@H]1CN([C@H](C)CO)S(=O)(=O)c2ccc(C3=CCCC3)cc2O[C@H]1CN(C)C(=O)Cc1ccncc1	inactive: 0.991
COc1ccccc1C(=O)Nc1ccc2c(c1)C(=O)N(C)[C@H]1CC[C@H](CC(=O)NCCc3ccncc3)O[C@H]1CO2	inactive: 1
O=C(C[C@H]1CC[C@H](NC(=O)c2cnccn2)[C@@H](CO)O1)NCc1ccccc1F	inactive: 0.994
O=C(C[C@@H]1CC[C@@H]2[C@H](COC[C@@H](O)CN2S(=O)(=O)c2ccccc2)O1)N[C@H]1CCN(Cc2ccccc2)C1	inactive: 0.994
C[C@@H]1CCCCO[C@H](CN(C)Cc2ccc(C(=O)O)cc2)[C@H](C)CN([C@@H](C)CO)C(=O)c2cc(NC(=O)Nc3ccccc3)ccc2O1	inactive: 0.998
CC(C)NC(=O)N(C)C[C@H]1Oc2ccc(NC(=O)CCN3CCOCC3)cc2CC(=O)N([C@H](C)CO)C[C@@H]1C	inactive: 0.974
COc1ccc(NC(=O)N(C)C[C@H]2OCc3ccccc3-c3c(n(C)c4ccccc34)C(=O)N([C@H](C)CO)C[C@@H]2C)c(OC)c1	inactive: 0.97

SMILES	relative growth
C=CCNC1=NS(=O)(=O)c2ccccc21	inactive: 1
CC(C)NC(=O)Nc1ccc2c(c1)C(=O)N([C@@H](C)CO)C[C@H](C)[C@@H](CN(C)S(=O)(=O)c1ccc(Cl)cc1)O2	inactive: 0.919
Cc1noc(C)c1S(=O)(=O)Nc1ccc2c(c1)C(=O)N([C@H](C)CO)C[C@@H](C)[C@H](CN(C)S(=O)(=O)c1cccs1)O2	inactive: 1
CCCCCCCC/C=C\C/C=C\C/C=C\CCCC(=O)O	inactive: 0.912
CC(=O)OCC(=O)C1(O)CCC2C3CCC4=CC(=O)C=CC4(C)C3(Cl)C(Cl)CC21C (stereo not drawn)	inactive: 1.12
C[C@@H]1CN([C@@H](C)CO)C(=O)c2cc(NC(=O)CCN3CCOCC3)ccc2O[C@H]1CN(C)C(=O)Nc1ccccc1	inactive: 0.999
O=C(C[C@H]1C[C@@H]2c3cc(NC(=O)C4CCOCC4)ccc3O[C@@H]2[C@@H](CO)O1)NCc1ccc2c(c1)OCO2	inactive: 1
COC(=O)c1c(CC[C@@H](CO)NC(=O)N2CCC[C@H]2Cn2cc(-c3ccccn3)nn2)oc(C(C)=O)c1C(=O)OC	inactive: 0.994
C[C@@H]1CN([C@H](C)CO)C(=O)Cc2cc(NC(=O)Nc3ccc(C(F)(F)F)cc3)ccc2O[C@H]1CN(C)C(=O)Nc1ccc2c(c1)OCO2	inactive: 1.03
COCC#Cc1cnc2c(c1)C(=O)N([C@@H](C)CO)C[C@H](C)[C@@H](CN(C)C(=O)c1ccc3c(c1)OCO3)O2	inactive: 1.02
C[C@H]1CCCCO[C@H](CN(C)C(=O)Nc2cccc3ccccc23)[C@@H](C)CN([C@@H](C)CO)C(=O)c2cc(NC(=O)Nc3ccc(C(F)(F)F)cc3)ccc2O1	inactive: 1.02
C[C@@H]1CN([C@H](C)CO)C(=O)c2cc(NC(=O)NC3CCCCC3)ccc2O[C@@H]1CN(C)Cc1ccc(C(F)(F)F)cc1	inactive: 0.996
C[C@H]1CN([C@@H](C)CO)C(=O)c2ccccc2-c2ccccc2CO[C@@H]1CN(C)Cc1ccc(C(F)(F)F)cc1	inactive: 1.05
COc1ccc(CN(C)C[C@H]2OCCCC[C@H](C)Oc3ccc(NS(=O)(=O)c4c(C)noc4C)cc3C(=O)N([C@H](C)CO)C[C@H]2C)cc1	inactive: 0.965
COC(=O)c1cn(CCNC(=O)[C@@H](NS(=O)(=O)c2ccc(C)cc2)C(C)C)nn1	inactive: 0.976
OC[C@H]1O[C@@H](n2cnc3c(N[C@@H]4CCOC4)ncnc32)[C@H](O)[C@@H]1O	inactive: 0.957
O=C(C[C@@H]1CC[C@H]2[C@@H](COC[C@@H](O)CN2S(=O)(=O)c2cccc(Cl)c2)O1)NC1Cc2ccccc2C1	inactive: 0.993
CC(=O)OC[C@@H]1O[C@H](O[C@@H]2CC[C@]34C[C@]35CC[C@]3(C)[C@@H]([C@@H](C)[C@H]6C[C@@H](O)C(C)(C)O6)CC[C@@]3(C)[C@H]5CC[C@H]4[C@H]2C)[C@@H](O)[C@H](OC(C)=O)[C@@H]1O[C@H]1O[C@@H](CO)[C@@H](O[C@H]2O[C@@H](CO)[C@@H](O)[C@@H](O)[C@@H]2O)[C@@H](O[C@H]2O[C@@H](C)[C@@H](O)[C@@H](O)[C@@H]2O)[C@@H]1O	inactive: 0.931
